The target of one data set is T1, Mouse GLP-1R (Mus musculus, UniProt O35659).
T1 construct: expressed in transfected cells; host or cells: HEK293 (ATCC, CRL-1573)
T1 sequence (O35659 22-463): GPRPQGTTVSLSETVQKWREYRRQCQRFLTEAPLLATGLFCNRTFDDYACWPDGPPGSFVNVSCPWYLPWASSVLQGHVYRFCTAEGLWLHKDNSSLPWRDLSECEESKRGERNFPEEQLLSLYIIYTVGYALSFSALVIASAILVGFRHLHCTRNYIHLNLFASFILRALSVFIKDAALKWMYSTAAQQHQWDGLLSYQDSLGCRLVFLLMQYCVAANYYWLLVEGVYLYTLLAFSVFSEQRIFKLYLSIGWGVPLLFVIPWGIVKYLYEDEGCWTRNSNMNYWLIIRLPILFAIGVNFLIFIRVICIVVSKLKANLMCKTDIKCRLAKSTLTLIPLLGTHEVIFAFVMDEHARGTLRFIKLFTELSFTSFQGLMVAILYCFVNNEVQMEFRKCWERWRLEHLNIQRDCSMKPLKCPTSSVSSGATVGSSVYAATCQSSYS
Description: cAMP HTRF antagonism assay in HEK293 transfected with mouse GLP-1R. The class given is cell-based. The protocol: HEK293 cells (ATCC, cat no. CRL-1573) were transfected with GLP-1R_pcDNA3.1/G418 (+) plasmids which can transcribe the mRNA of human (NM_002062.5), monkey (JN033215.1) and mouse (NM_021332.2) GLP-1R polypeptide. […] The plate was further incubated at 37° C. for 120 minutes. Finally, the CAMP level was measured with cAMP HTRF kit (Cisbio, 62AM4PEB). […] The data were analyzed by four-parameter curve fitting with GraphPad Prism 9, and IC50 was calculated.

For the next data set, the system named is humanized GLP-1R mice. Description: OGTT in humanized GLP-1R mice (no exogenous GLP-1 added). The class given is in vivo, mouse. Conditions: s.c. once a week x2 (P16288 200 or 400 nmol/kg, P16289 400 nmol/kg); OGTT Day 1 and Day 8. How it is done:
10-week-old male humanized GLP-1R mice (25-32 g) were assigned into 4 groups, with 5 mice in each group. The antibody treatment groups were subcutaneously injected with P16288 (200 nmol/kg), P16288 (400 nmol/kg) or P16289 (400 nmol/kg), respectively, and the vehicle group was subcutaneously injected with vehicle (PBS) once a week for 2 consecutive weeks. The first subcutaneous administration of antibody was on Day 0, and the second subcutaneous administration was on Day 7. OGTTs were performed on Day 1 and Day 8, and glucose solution (25%, w/v) was given to mice by oral administration at a dose of 13.9 mmol/kg. There was an 18-hour fasting period between the administration of the antibody and the oral administration of glucose solution. The blood glucose levels of the mice before (0 min) and 15 min, 30 min, 60 min, 90 min, 120 min and 180 min (or 240 min) after the administration of glucose were measured with blood glucose meter. The AUCs of the blood glucose-time curves of each mouse from 0 to 180 min (or 240 min) were calculated with GraphPad Prism 9. The blood glucose levels and the AUCs were shown in Mean±SEM and the differences among groups were compared. Statistical differences were analyzed with One-way ANOVA. As compared with the vehicle group, * stands for p<0.05; ** stands for p<0.01; *** stands for p<0.001; **** stands for p<0.0001; ns stands for no significance. […]

In another data set the test system is C57BL/6 mice. As to the kind of experiment: OGTT in C57BL/6 mice (no exogenous GLP-1 added). The class given is in vivo, mouse. Particulars: wildtype C57BL/6, single s.c. P16288 100 or 200 nmol/kg. The protocol: 6-week-old male C57BL/6 mice (18-21 g) were assigned into 4 groups, with 5 mice in each group. Each group was given a single subcutaneous injection of vehicle (PBS), P16288 (200 nmol/kg), P16288 (100 nmol/kg) or P16289 (100 nmol/kg), and were fasted for 18 hours after administration. After the fasting, glucose solution was given to mice by oral administration at a dose of 13.9 mmol/kg. The blood glucose levels of the mice before (0 min) and 15 min. 30 min, 60 min, 90 min, 120 min, 180 min and 270 min after the administration of glucose were measured with blood glucose meter. The AUCs of the blood glucose-time curves of each mouse from 0 to 270 min were calculated with GraphPad Prism 9. The blood glucose levels and the AUCs were shown in Mean±SEM and the differences among groups were compared. Statistical differences were analyzed with One-way ANOVA. As compared with the vehicle group, * stands for p<0.05; ** stands for p<0.01; *** stands for p<0.001; stands for p<0.0001: ns stands for no significance. The significance markers were not shown in the line chart since they would overlap and be difficult to distinguish.

A short description of data set [1]: Pharmacokinetics in SD rats, single subcutaneous injection. The class given is in vivo. Particulars: 5 mg/kg single s.c., mean. How it is done:
6-8-week-old male SD rats were given a single subcutaneous injection of P16288 or P16289 at a dose of 5 mg/kg, with 3 rats in each group. The whole blood of the rats at 5 minutes before administration (−5 min) and 2 h, 4 h, 24 h, 48 h, 72 h, 96 h, 120 h, 168 h, 192 h, 240 h, 264 h after administration were collected to prepare EDTA plasma. The concentration of antibodies in plasma was measured by ELISA. The detailed procedure of the measurement is as follow: The 96-well plate was coated with 1 μg/mL of AffiniPure Goat Anti-Human IgG antibody (Jackson lab, cat. no. 109-005-098) diluted in PBS and incubated overnight at 4° C. The coating solution was removed and the plate was washed with PBST (PBS+0.05% Tween). Then the plate was blocked with 1% BSA, wash with PBST, and added with the standard (P16288 or 16289) diluted in PBS+0.1% BSA+0.1% blank rat plasma at gradient concentrations of 1000, 200, 40, 8, 1.6, 0.32, 0.064, 0 nM, which was used for plotting a standard curve. At the same time, the plasma samples diluted 1000 times in PBS+0.1% BSA were added to other wells, and the plate was incubated at room temperature for 60 min. After washed with PBST, horseradish peroxidase-labeled Goat Anti-Human IgG, Fcγ fragment specific (Jackson lab, cat. no. 109-035-098) was added and the plate was incubated for 60 min. After the plate was washed with PBST, TMB substrate was added for coloration. The reaction was finally terminated with 0.5 M H2SO4, and the absorbance was measured with microplate reader at 450 nm. Drug concentration-time curves were plotted with GraphPad Prism 9, and the pharmacokinetic parameters (Cmax, Tmax, T1/2, AUC and MRT) of the drugs were calculated in non-compartmental model.

Where only a bound is given, the exact number is not on record here.

B1: P16288: Fully human anti-GLP-1R IgG4 (S228P) antibody; heavy chain SEQ ID NO: 9, light chain SEQ ID NO: 10 (antibody)
heavy: QVQLVQSGAEMKKPGASVKVSCKTSGYRFSTYVISWVRQTPGQGLEWMGWISPYTGDIDYAQKFQGRVTITADESTSTAYMELSRLRSDDTAVYYCARERDGYNFPGMDVWGQGTTVTVSSASTKGPSVFPLAPCSRSTSESTAALGCLVKDYFPEPVTVSWNSGALTSGVHTFPAVLQSSGLYSLSSVVTVPSSSLGTKTYTCNVDHKPSNTKVDKRV[human IgG4 Fc with S228P (EU numbers) not listed]
light: DIQLTQSPSFLSASVGDRVTITCRASQGISSYLAWYQQKPGRAPKLLIYSASTLQRGVPSRFSGSGSGTDFTLTISSLQPEDYATYYCQQADSFPPSFGPGTKVDIKRTVAAPSVFIFPPSDEQLKSGTASVVCLLNNFYPREAKVQWKVDNALQSGNSQESVTEQDSKDSTYSLSSTLTLSKADYEKHKVYACEVTHQGLSSPVTKSFNRGEC
Usually IC50 stands for the concentration that inhibits the measured activity by half. High values mean lower potency, low ones higher potency. By Cmax is commonly meant the maximum level reached in the sampled fluid or tissue. By Tmax is commonly meant the time at which the peak concentration occurs. Consider B1, for which the “antagonism of activation of mouse GLP-1R by GLP-1 (in words)” value with Mouse GLP-1R was “cannot antagonize the activation of mouse GLP-1R”. In the data set with Mouse GLP-1R (6 ng/ml GLP-1), the IC50 is greater than 10.2 µM. In addition, the “effect of raising blood glucose level in OGTT (in words)” value in the data set with humanized GLP-1R mice is “exhibited its effect of raising blood glucose level after both of the two administrations”. In the data set on C57BL/6 mice, the “blood glucose levels in OGTT versus vehicle group (in words)” value is listed as “no statistical difference from the vehicle group”. Also, in data set [1], the AUC0-inf obs came out at 2435.1 µg·h/mL, the Cmax was determined as 15200 ng/mL, the MRT0-inf obs was 132.2 h and the T1/2 is on record as 99.1 h. The time to peak (Tmax) in data set [1] worked out at 42.0 h.
